Structures can show the parent of a compound that is named as a salt.

In general, Ki refers to a dissociation constant, usually derived from enzyme kinetics or from competition with a known ligand. A high value points to lower affinity.

For assay [1], the target named is human dopamine type 3 receptor (hD3) (Homo sapiens (Human), UniProt P35462). In words: biochemical.
Assay [2] has as its target human dopamine receptor type 2, long variant (hD2L) (Homo sapiens (Human), UniProt P14416). The note with it: functional pKi, CHO-Gα16-hD2L cells, FLIPR Ca2+, dopamine EC80 challenge.
UniProt P14416, sequence (P14416 whole entry): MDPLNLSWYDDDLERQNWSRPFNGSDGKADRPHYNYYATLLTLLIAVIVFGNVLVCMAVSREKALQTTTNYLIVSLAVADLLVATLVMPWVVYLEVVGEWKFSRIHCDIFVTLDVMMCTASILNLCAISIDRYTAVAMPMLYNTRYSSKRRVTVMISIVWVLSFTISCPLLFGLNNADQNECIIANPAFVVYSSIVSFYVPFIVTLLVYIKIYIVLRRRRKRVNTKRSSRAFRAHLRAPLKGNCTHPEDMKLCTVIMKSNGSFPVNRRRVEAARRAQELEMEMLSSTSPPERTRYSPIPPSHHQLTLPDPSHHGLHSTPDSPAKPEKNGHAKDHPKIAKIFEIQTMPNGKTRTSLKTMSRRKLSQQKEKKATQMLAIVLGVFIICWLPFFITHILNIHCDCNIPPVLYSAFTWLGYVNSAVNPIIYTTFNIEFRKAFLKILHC

UniProt P35462, sequence (P35462 whole entry): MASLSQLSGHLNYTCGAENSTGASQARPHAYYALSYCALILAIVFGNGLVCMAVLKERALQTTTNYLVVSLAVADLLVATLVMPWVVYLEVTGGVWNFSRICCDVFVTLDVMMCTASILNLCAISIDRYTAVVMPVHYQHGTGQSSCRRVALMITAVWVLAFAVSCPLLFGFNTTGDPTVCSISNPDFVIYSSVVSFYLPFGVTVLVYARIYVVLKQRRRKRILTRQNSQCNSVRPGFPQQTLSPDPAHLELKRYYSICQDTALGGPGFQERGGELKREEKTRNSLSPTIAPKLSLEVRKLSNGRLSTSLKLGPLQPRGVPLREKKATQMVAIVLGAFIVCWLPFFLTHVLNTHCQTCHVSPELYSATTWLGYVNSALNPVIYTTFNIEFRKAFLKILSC

`Cc1ncoc1-c1nnc(SCCCN2C[C@H]3CC[C@H](c4ccc(C(F)(F)F)cc4)[C@H]3C2)n1C` (single isomer, unassigned) [Example 226, 4-methyl-3-(4-methyl-1,3-oxazol-5-yl)-5-({3-[(4S or 4R)-4-[4-(trifluoromethyl)phenyl]-octahydrocyclopenta[c]pyrrol-2-yl]propyl}sulfanyl)-4H-1,2,4-triazole Hydrochloride]: the inhibition constant (Ki) in assay [1] was 3.72 nM. In turn, `Cn1c(SCCCN2C[C@@H]3CCN(c4ccccc4)[C@@H]3C2)nnc1C1CCOCC1` (single isomer, unassigned) [Example 39, 3-({3-[(3aS,6aS or 3aR,6aR)-1-phenyl-octahydropyrrolo[2,3-c]pyrrol-5-yl]propyl}sulfanyl)-4-methyl-5-(oxan-4-yl)-4H-1,2,4-triazole] had a Ki in assay [1] of 6.92 nM. The same measure, in the same setting: for `Cn1c(SCCCN2C[C@H]3CCN(c4cccnc4)[C@H]3C2)nnc1C1CCCCC1` (single isomer, unassigned) [Example 70, 3-[(3aR,6aR or 3aS,6aS)-5-{3-[(5-cyclohexyl-4-methyl-4H-1,2,4-triazol-3-yl)sulfanyl]propyl}-octahydropyrrolo[2,3-c]pyrrol-1-yl]pyridine] the value was 20.9 nM. Consider `Cl.Cl.Cn1c(SCCCN2C[C@H]3CCN(c4ccc(C(F)(F)F)cc4)[C@H]3C2)nnc1C1CCC(O)CC1` (stereo in doubt) [Example 221, 4-{4-methyl-5-[(3-{1-[4-(trifluoromethyl)phenyl]-octahydropyrrolo[2,3-c]pyrrol-5-yl}propyl)sulfanyl]-4H-1,2,4-triazol-3-yl}cyclohexan-1-ol Dihydrochloride], for which the “D2 fpKi” value in assay [2] is listed as 6.16.

Consider `Cn1c(SCCCN2C[C@H]3CCN(c4ccc(C(F)(F)F)cc4)[C@H]3C2)nnc1C1CCOCC1` (single isomer, unassigned) [Example 35, 3-({3-[(3aR,6aR or 3aS,6aS)-1-[4-(trifluoromethyl)phenyl]-octahydropyrrolo[2,3-c]pyrrol-5-yl]propyl}sulfanyl)-4-methyl-5-(oxan-4-yl)-4H-1,2,4-triazole], for which, in assay [1], affinity was put at a Ki of 5.25 nM. In assay [1], `Cn1c(SCCCN2C[C@@H]3CCN(c4ccc(C(F)(F)F)cc4)[C@@H]3C2)nnc1C1CCOCC1` (single isomer, unassigned) [Example 34, 3-({3-[(3aS,6aS or 3aR,6aR)-1-[4-(trifluoromethyl)phenyl]-octahydropyrrolo[2,3-c]pyrrol-5-yl]propyl}sulfanyl)-4-methyl-5-(oxan-4-yl)-4H-1,2,4-triazole] showed an inhibition constant (Ki) of 3.09 nM. With `Cn1c(CCCCN2C[C@@H]3CCN(c4ccc(C(F)(F)F)cc4)[C@@H]3C2)nnc1C1CCOCC1` (single isomer, unassigned) [Example 216, 3-{4-[(3aS,6aS or 3aR,6aR)-1-[4-(trifluoromethyl)phenyl]-octahydropyrrolo[3,4-b]pyrrol-5-yl]butyl}-4-methyl-5-(oxan-4-yl)-4H-1,2,4-triazole Dihydrochloride], the affinity in assay [1] corresponds to a Ki of 20.4 nM. With `Cn1c(SCCCN2C[C@@H]3CCN(c4ccc(C(F)(F)F)cc4)[C@@H]3C2)nnc1C1CCCCC1` (single isomer, unassigned) [Example 59, 3-({3-[(3aS,6aS or 3aR,6aR)-1-[4-(trifluoromethyl)phenyl]-octahydropyrrolo[3,4-b]pyrrol-5-yl]propyl}sulfanyl)-5-cyclohexyl-4-methyl-4H-1,2,4-triazole], affinity in assay [1] was put at a Ki of 0.398 nM.

In turn, `Cn1c(SCCCN2C[C@H]3CCN(c4ccccc4)[C@H]3C2)nnc1C1CCOCC1` (single isomer, unassigned) [Example 40, 3-({3-[(3aR,6aR or 3aS,6aS)-1-phenyl-octahydropyrrolo[2,3-c]pyrrol-5-yl]propyl}sulfanyl)-4-methyl-5-(oxan-4-yl)-4H-1,2,4-triazole] had a Ki in assay [1] of 26.9 nM. The compound `Cn1c(SCCCN2C[C@H]3CCN(c4ccc(C(F)(F)F)cc4)[C@H]3C2)nnc1C1CCCCC1` (single isomer, unassigned) [Example 60, 3-({3-[(3aR,6aR or 3aS,6aS)-1-[4-(trifluoromethyl)phenyl]-octahydropyrrolo[3,4-b]pyrrol-5-yl]propyl}sulfanyl)-5-cyclohexyl-4-methyl-4H-1,2,4-triazole] gave a Ki in assay [1] of 0.407 nM. `Cn1c(SCCCN2C[C@@H]3CCN(c4cccnc4)[C@@H]3C2)nnc1C1CCCCC1` (single isomer, unassigned) [Example 69, 3-[(3aS,6aS or 3aR,6aR)-5-{3-[(5-cyclohexyl-4-methyl-4H-1,2,4-triazol-3-yl)sulfanyl]propyl}-octahydropyrrolo[2,3-c]pyrrol-1-yl]pyridine] showed an inhibition constant (Ki) in assay [1] of 11.7 nM. The same measure, in the same setting: for `Cc1ncoc1-c1nnc(SCCCN2C[C@H]3CC[C@@H](c4ccc(C(F)(F)F)cc4)[C@H]3C2)n1C` (single isomer, unassigned) [Example 227, 4-methyl-3-(4-methyl-1,3-oxazol-5-yl)-5-({3-[(4R or 4S)-4-[4-(trifluoromethyl)phenyl]-octahydrocyclopenta[c]pyrrol-2-yl]propyl}sulfanyl)-4H-1,2,4-triazole Hydrochloride] the value was 35.5 nM.

For the origin of these results see patent US10584135B2, “Substituted 3,6-diazabicyclo[3.2.0]heptanes” (INDIVIOR UK LIMITED, priority 2015, dated 2020).
